# The list shows a part of the results. At the low end of the ranking, values are background and their order means little.
# Target: GST-SBP-SLBP (stem-loop binding protein) (UniProt Q14493)
# Assay: targeted RNA Bind-n-Seq;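 also: DESeq read counts versus GST-SBP nonspecific binding control pulldown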
# Conditions: RBNS binding buffer: 25 mM Tris pH 7.5, 150 mM KCl, 3 mM MgCl2, 0.1% Tween, 0.5 mg/mL BSA, 1 mM DTT; 27 nM protein, 750 pM RNA pool; temperature not stated; high values mean tight binding
row,Sequence,binding signal (log2 fold change)
1,GGUCACGUCUCAAUCAACUCAGUCCCCAGGGAAACCCCUGGCUUUUUCAACAGCUCGCAGUCAAG,0.00749
2,GGUCACGUCUCAAUCAACUCAGUCCCAGGAGUUUGCUCCUGCAUUUUCAACAGCUCGCAGUCAAG,-0.0532
3,GGUCACGUCUCAAUCAACUCUACUCCAGGAGUUUCCUCCUGCUAAUUCAACAGCUCGCAGUCAAG,-0.14
4,GGUCACGUCUCAAUCAACUCAUCAGAGGGGGGGAAAACCCCUUUGCCCUCAUAAUCAACAGCUCGCAGUCAAG,0.154
5,GGUCACGUCUCAAUCAACUCCCUCGAGGGGGGGAAAACCCCUUUACCCUCACUAUCAACAGCUCGCAGUCAAG,0.0703
6,GGUCACGUCUCAAUCAACUCAACUUCCAGGGAAACCCCUGGCAUACUCAACAGCUCGCAGUCAAG,-0.0077
7,GGUCACGUCUCAAUCAACUCAAGUCCAGGAGUUUCCUCCUGUUUAUUCAACAGCUCGCAGUCAAG,-0.0517
8,GGUCACGUCUCAAUCAACUCAACUCCAGGAGUUUCCUCCUGCAAAUUCAACAGCUCGCAGUCAAG,0.23
9,GGUCACGUCUCAAUCAACUCCUCGGAGGGGGGGAAAACCCCUUUACCCUCAACAUCAACAGCUCGCAGUCAAG,-0.359
10,GGUCACGUCUCAAUCAACUCAAUCGAGGGGGGGAAAACCCCUUUACCCUCAUACUCAACAGCUCGCAGUCAAG,-0.164
11,GGUCACGUCUCAAUCAACUCCCAAGAGGGGGGGAAAACCCCUUUACCCUCAAUAUCAACAGCUCGCAGUCAAG,-0.367
12,GGUCACGUCUCAAUCAACUCAUUAGAGGGGGGGAAAACCCCUUUACCCUCCACAUCAACAGCUCGCAGUCAAG,0.171
13,GGUCACGUCUCAAUCAACUCAAUAGAGGGGGGGAAAACCCCUUUGCCCUCAAAAUCAACAGCUCGCAGUCAAG,-0.134
14,GGUCACGUCUCAAUCAACUCUAUAGAGGGGGGGAAAACCCCUUUACCCUCGUCCUCAACAGCUCGCAGUCAAG,-0.378
15,GGUCACGUCUCAAUCAACUCAUGUCCAGGAGUUUUCUCCUGUAAAUUCAACAGCUCGCAGUCAAG,-0.0987
16,GGUCACGUCUCAAUCAACUCAAUCUCCAGGGAAAACCCUGGCAUAUUCAACAGCUCGCAGUCAAG,0.0278
17,GGUCACGUCUCAAUCAACUCUAUUUCCAGGGAAAGCCCUGGUUUUUUCAACAGCUCGCAGUCAAG,-0.313
18,GGUCACGUCUCAAUCAACUCAAUCUCAGGAGUUUUCUCCUGCAUUUUCAACAGCUCGCAGUCAAG,0.0346
19,GGUCACGUCUCAAUCAACUCACAAGAGGGGGGGAAAACCCCUUUGCCCUCAAUAUCAACAGCUCGCAGUCAAG,-0.158
20,GGUCACGUCUCAAUCAACUCAUCUCCCAGGGAAACCCCUGGUAAAUUCAACAGCUCGCAGUCAAG,-0.11
21,GGUCACGUCUCAAUCAACUCUUCGUCCAGGGAAAGCCCUGGUUUAUUCAACAGCUCGCAGUCAAG,0.0572
22,GGUCACGUCUCAAUCAACUCAUCCCCCAGGGAAACCCCUGGUAAACUCAACAGCUCGCAGUCAAG,-0.13
23,GGUCACGUCUCAAUCAACUCAUCUUCCAGGGAAACCCCUGGUUUACUCAACAGCUCGCAGUCAAG,-0.00345
24,GGUCACGUCUCAAUCAACUCUUUUUCAGGAGUUUCCUCCUGUUAUUUCAACAGCUCGCAGUCAAG,0.0402

row,Sequence,binding signal (log2 fold change)
1,GGUCACGUCUCAAUCAACUCUUUCUCAGGAGUUUCCUCCUGCAUAUUCAACAGCUCGCAGUCAAG,0.0393
2,GGUCACGUCUCAAUCAACUCUUUCCCCAGGGAAACCCCUGGUAAUGUCAACAGCUCGCAGUCAAG,-0.0368
3,GGUCACGUCUCAAUCAACUCUUCUUCCAGGGAAAACCCUGGCUAAUUCAACAGCUCGCAGUCAAG,0.193
4,GGUCACGUCUCAAUCAACUCUUUCUCAGGAGUUUUCUCCUGUUUUCUCAACAGCUCGCAGUCAAG,-0.0748
5,GGUCACGUCUCAAUCAACUCUACUCCCAGGGAAAGCCCUGGCAAUGUCAACAGCUCGCAGUCAAG,0.0158
6,GGUCACGUCUCAAUCAACUCUUCUUCCAGGGAAAACCCUGGUUUAUUCAACAGCUCGCAGUCAAG,-0.0265
7,GGUCACGUCUCAAUCAACUCAUCCCCCAGGGAAAACCCUGGUAUACUCAACAGCUCGCAGUCAAG,0.0596
8,GGUCACGUCUCAAUCAACUCCAAAGAGGGGGGGAAAACCCCUUUGCCCUCACAAUCAACAGCUCGCAGUCAAG,0.159
9,GGUCACGUCUCAAUCAACUCAUCCCCAGGAGUUUUCUCCUGUUAUCUCAACAGCUCGCAGUCAAG,0.131
10,GGUCACGUCUCAAUCAACUCUUCUCCCAGGGAAAACCCUGGUAUUCUCAACAGCUCGCAGUCAAG,0.000775
11,GGUCACGUCUCAAUCAACUCAUUCCCAGGAGUUUCCUCCUGCUAUUUCAACAGCUCGCAGUCAAG,-0.138
12,GGUCACGUCUCAAUCAACUCAAUAGAGGGGGGGAAAACCCCUUUACCCUCAUCGUCAACAGCUCGCAGUCAAG,-0.0795
13,GGUCACGUCUCAAUCAACUCUUCCCCCAGGGAAAUCCCUGGCAUACUCAACAGCUCGCAGUCAAG,0.114
14,GGUCACGUCUCAAUCAACUCAAGUCCAGGAGUUUUCUCCUGCUUAUUCAACAGCUCGCAGUCAAG,-0.187
15,GGUCACGUCUCAAUCAACUCAUUCGAGGGGGGGAAAACCCCUUUACCCUCAUUUUCAACAGCUCGCAGUCAAG,-0.131
16,GGUCACGUCUCAAUCAACUCUCUCGAGGGGGGGAAAACCCCUUUACCCUCAAAAUCAACAGCUCGCAGUCAAG,-0.0387
17,GGUCACGUCUCAAUCAACUCCCUAGAGGGGGGGAAAACCCCUUUACCCUCCACGUCAACAGCUCGCAGUCAAG,0.14
18,GGUCACGUCUCAAUCAACUCAUCCUCCAGGGAAAACCCUGGUUAUUUCAACAGCUCGCAGUCAAG,0.0965
19,GGUCACGUCUCAAUCAACUCUAAAGAGGGGGGGAAAACCCCUUUUCCCUCAUAAUCAACAGCUCGCAGUCAAG,0.0899
20,GGUCACGUCUCAAUCAACUCAUUCUCCAGGGAAAACCCUGGCAUUCUCAACAGCUCGCAGUCAAG,-0.171
21,GGUCACGUCUCAAUCAACUCUAUCCCCAGGGAAAUCCCUGGCAUUCUCAACAGCUCGCAGUCAAG,-0.228
22,GGUCACGUCUCAAUCAACUCAAUCCCAGGAGUUUUCUCCUGUAAUGUCAACAGCUCGCAGUCAAG,-0.215
23,GGUCACGUCUCAAUCAACUCAAUUCCAGGAGUUUUCUCCUGCAUAUUCAACAGCUCGCAGUCAAG,0.128
